# In all, about 410,000 compounds went through this assay and about 5,000 (1.2%) were called active. The shares of active, inactive and inconclusive entries below differ from those in the screen. Calls follow the shape of the dose curve; as a rule, active = well fitted inhibition curve with a large enough effect; inconclusive = small, poorly fitted or top-dose-only effect; inactive = no such curve, though single readings can be large or run the other way. Potencies of inconclusive entries are doubtful fits and often do not repeat.
# Assay: qHTS for Inhibitors of TGF-b; also: nearly all actives have a fitted effect of over 65% in size
# Conditions: HepG2 CAGA-GFP TGF-b/SMAD3 reporter, GFP fluorescence, 18 h, TGF-beta stimulated, 500 pg/mL final; series mostly up to 46.1 µM
# How it was run: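 Per well, imaged GFP fluorescence of HEPG2 CAGA-GFP cells gives the signal; cells get compound, then TGF-beta (500 pg/mL final), 18 h at 37 degrees C; %Activity versus -TGF-beta and +DMSO controls.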
# Potency is read from the fitted curve at half-maximal effect; tags tell the direction and shape of the fitted curve.
row,SMILES,Potency
1,COc1ccc2c(c1)CCC1(C)CC(=O)C(Br)=C21 (centres undefined),inactive
2,O=C(c1ccc(S(=O)(=O)Nc2cccc(C(F)(F)F)c2)cc1)N1CCN(c2ccccc2O)CC1,"inconclusive: 22.4 µM [inhibitor, single point]"
3,CCC(C(=O)NC1CCCCC1)n1c(SCc2cccc(C)c2)nc2ccncc21 (centres undefined),active: 12.6 µM
4,COc1ccc(-c2ccc(C(=O)Nc3cccc(C(F)(F)F)c3)c3occc23)c(C)c1,inactive
5,CCOC(=O)Cn1nc(C)n(-c2ccc(C)cc2)c1=O,"inconclusive: 3.55 µM [inhibitor, partial curve]"
6,Cc1nn(CCCC(=O)NCCc2ccccc2)c(=O)c2nn(-c3ccccc3)c(C)c12,"inconclusive: 3.55 µM [inhibitor, single point]"
7,Cc1ccc(C)c(NC(=S)N2CCC(c3nc4ccccc4s3)CC2)c1,"inconclusive: 35.5 µM [inhibitor, single point]"
8,Cc1cc[n+](CC(=O)Nc2cc(C(F)(F)F)ccc2Cl)cc1,inactive
9,Cc1c(C#N)c2ccccc2n1CCOc1ccccc1F,"inconclusive: 10 µM [inhibitor, partial curve]"
10,COc1ccc(C)cc1NCc1ccc(OC)c(C)c1OC,"inconclusive: 11.2 µM [inhibitor, single point]"
11,CCN(CC)S(=O)(=O)c1cccc(NC(=O)C2SC(=Nc3ccc(C)cc3C)C(C(=O)NCC3CCCO3)=C2N)c1 (centres undefined),"inconclusive: 35.5 µM [inhibitor, single point]"
12,C=CC[C@@H](CC(=O)N(CCO)Cc1ccccc1)C(=O)N[C@H](COC(=O)[C@@H](CC=C)CC(=O)OC(C)(C)C)c1ccccc1,"inconclusive: 14.1 µM [inhibitor, single point]"
13,COc1ccc(CC(=O)Nc2cc(S(=O)(=O)N3CCCCC3)ccc2C)cc1OC,"inconclusive: 11.2 µM [inhibitor, partial curve, poor fit]"
14,O=C1Nc2ccccc2OC1CC(=O)N1CCN(c2cccc(C(F)(F)F)c2)CC1 (centres undefined),inactive
15,Cc1ccc(C)c(-n2nnc(-c3nc(-c4ccccc4C)no3)c2C)c1,inactive
16,COc1ccc(-c2nn(-c3ccc(C)cc3)c3c2cnc2ccc(C)cc23)cc1OC,inactive
17,CCOCc1[nH]c(=S)[nH]c(=O)c1Cc1ccc(OCC(C)C)cc1,"inconclusive: 35.5 µM [inhibitor, single point]"
18,Cn1c(SCc2ccc([N+](=O)[O-])cc2)nnc1-c1ccncc1,inactive
19,CCOc1ccc(-c2nc(CSCC(=O)NCc3ccc(C)cc3)c(C)o2)cc1,"inconclusive: 1.26 µM [inhibitor, full curve]"
20,Cc1cc(Br)cc(C=Nc2ccc(N3CCOCC3)cc2)c1O,"inconclusive: 7.08 µM [inhibitor, partial curve, poor fit]"
21,Cc1cccc(N2CCN(c3ncnc4c3nc3n4CCCCC3)CC2C)c1 (centres undefined),"inconclusive: 22.4 µM [inhibitor, single point]"
22,COC(=O)c1ccc(C23CC4(C2)[C@H](CN(CC2CCCCC2)[C@@H]4c2ccccc2)C3c2ccc(C(F)(F)F)cc2)cc1 (some centres undefined),"inconclusive: 35.5 µM [inhibitor, single point]"

row,SMILES,Potency
1,COc1ccc([C@H]2CC(=O)C=C(c3cccc(Cl)c3O)C2)cc1OC,"inconclusive: 3.16 µM [inhibitor, full curve, poor fit]"
2,CCN(CC)c1ccc(/C=N/NC(=S)NCc2ccc(OC)cc2)cc1,inactive
3,COc1cc(-c2n[nH]c(=S)n2-c2cccc(C(F)(F)F)c2)cc(OC)c1OC,"inconclusive: 3.16 µM [inhibitor, partial curve, poor fit]"
4,CCCN(C(=O)c1c(C)oc2ncnc(N3CCOCC3)c12)c1ccc(Cl)c(Cl)c1,inactive
5,C/C(COc1ccccc1)=N\NC(=O)c1nnn(-c2nonc2N)c1CSc1ccc(C)cc1,inactive
6,c1ccc(-c2cc3c(ccc4nonc43)nn2)cc1,inactive
7,CO/N=C/C(C#N)c1ncc(C(F)(F)F)cc1Cl (centres undefined),"inconclusive: 15.8 µM [inhibitor, single point]"
8,CNC(=O)[C@H](C)[C@@H]1C[C@@]1(C)[C@@H](NC(=O)OCc1ccccc1)c1ccccc1,inactive
9,CC1(C(=O)NS(=O)(=O)c2ccccc2)CCN1C(=O)C/C=C/c1ccccc1 (centres undefined),"inconclusive: 0.398 µM [inhibitor, partial curve, poor fit]"
10,Cc1ccc2c(CN3CCN(S(=O)(=O)c4ccc5c(c4)OCCO5)CC3)cc(=O)oc2c1C,"inconclusive: 25.1 µM [inhibitor, single point]"
11,O=S(=O)(Nc1ncnc2sc3c(c12)CCC3)c1cc(F)ccc1F,inactive
12,CCc1nnc(NC(=O)c2nc(SC)ncc2Cl)s1,"inconclusive: 0.0891 µM [inhibitor, full curve, poor fit]"
13,COc1cc(-c2cnc3c(NC=O)cc(-c4cccc(NC(C)=O)c4)cn23)cc(OC)c1OC,"inconclusive: 0.708 µM [inhibitor, full curve, poor fit]"
14,CCOc1ccc(N2C(=O)C(CC(=O)Nc3ccc(F)cc3)N(Cc3ccccn3)C2=S)cc1 (centres undefined),"inconclusive: 8.91 µM [inhibitor, partial curve]"
15,Cc1ccccc1C(=O)Nc1c(C(=O)Nc2cccc(F)c2)oc2ccccc12,"inconclusive: 0.501 µM [inhibitor, partial curve, poor fit]"
16,C=CCc1cc(/C=C2/NC(=S)NC2=O)cc(OC)c1O,inactive
17,O=C(NCc1ccc(OC(F)(F)F)cc1)c1ccc2c(c1)S(=O)(=O)c1ccccc1C2=O,"inconclusive: 3.55 µM [inhibitor, full curve, poor fit]"
18,Cc1ccc(NC(=O)NNC(=O)Cn2nc(-c3ccccc3)c(-c3ccccc3)c(C#N)c2=O)cc1,"inconclusive: 35.5 µM [inhibitor, single point]"
19,Cc1ccc(N=Nc2ccc(O)cc2)c(Br)c1,"inconclusive: 35.5 µM [inhibitor, single point]"
20,CCc1ccc2[nH]c(=O)c(CN(Cc3ccc(OC)cc3)Cc3nnnn3CCOC)cc2c1,inactive
21,CCOC(=O)c1c2c(n(C)c1C)C(=O)C(=O)c1ccc(Br)cc1-2,"inconclusive: 0.708 µM [inhibitor, full curve, poor fit]"
22,CC(C)(C)C(=O)Nc1nc(C2CCCN2S(=O)(=O)c2ccc(Cl)cc2)cs1 (centres undefined),"inconclusive: 10 µM [inhibitor, partial curve]"

row,SMILES,Potency
1,C[C@H](NC(=O)c1nc[nH]c1C(=O)N[C@@H](CCCCNC(=O)OC(C)(C)C)C(=O)OC(C)(C)C)c1ccccc1,"inconclusive: 25.1 µM [inhibitor, single point]"
2,CCOC(=O)c1c(NC(=S)N2CCN(C)CC2)sc2c1CCN(C(=O)OCC)C2,"inconclusive: 15.8 µM [inhibitor, partial curve, poor fit]"
3,Cc1nc(C)c(-c2nnc(-c3ccc(C(C)(C)C)cc3)o2)cc1C(=O)NN,inactive
4,CC1(C)Cc2c(cnn2-c2ccccc2)-c2c1c1ccccc1n2CC(O)CBr (centres undefined),"inconclusive: 7.94 µM [inhibitor, partial curve]"
5,Cc1ccc(-c2csc(NC(=O)CCNC(=O)c3ccc(Cl)cc3)n2)cc1,"inconclusive: 7.08 µM [inhibitor, full curve]"
6,COc1cc(OC)cc(-c2cc3nc(C)c(CCC(=O)Nc4ccccc4OC)c(C)n3n2)c1,"inconclusive: 15.8 µM [inhibitor, single point]"
7,Cc1c(C(=O)NCCSCc2c(F)cccc2Cl)cnn1-c1ccc(F)cc1,"inconclusive: 35.5 µM [inhibitor, single point]"
8,O=C(CN(c1ccc(Cl)c(C(F)(F)F)c1)S(=O)(=O)c1ccccc1)Nc1cccnc1,active: 11.2 µM
9,NC(=O)[C@@H]1CC2(CC(c3cccc(NC(=O)COc4ccc(Cl)cc4)c3)=NO2)CN1C(=O)COc1ccc(Cl)cc1 (some centres undefined),"inconclusive: 11.2 µM [inhibitor, partial curve, poor fit]"
10,Cc1nn2c(CN(C(=O)COc3ccccc3)c3ccccc3)nnc2c2ccccc12,"inconclusive: 6.31 µM [inhibitor, single point]"
11,CCCCOc1ccc(CONS(=O)(=O)c2ccc(NC(C)=O)cc2)cc1Cl,"inconclusive: 35.5 µM [inhibitor, single point]"
12,Cc1ncoc1C(=O)N1CCCC(N2CCN(c3cccc(C(F)(F)F)c3)CC2)C1 (centres undefined),"inconclusive: 15.8 µM [inhibitor, single point]"
13,CCCCCCc1cc2cc(C(=O)Nc3ccccc3)c(=O)oc2cc1O,"inconclusive: 1.12 µM [inhibitor, partial curve, poor fit]"
14,CCc1nc2sc3ccccc3c(=O)c2c(=O)n1Cc1ccc(OC)cc1,"inconclusive: 12.6 µM [inhibitor, partial curve, poor fit]"
15,O=C1Nc2ccc(F)cc2C12Nc1ccccc1-c1nnc(SCc3ccccc3)nc1O2 (centres undefined),"inconclusive: 35.5 µM [inhibitor, single point]"
16,O=C(CSCSCC(=O)Nc1ccc2c(c1)OCO2)Nc1ccc2c(c1)OCO2,"inconclusive: 35.5 µM [inhibitor, single point]"
17,COc1ccc(OC)c(NC(=O)Nc2c(C)n(C)n(-c3ccccc3)c2=O)c1,inactive
18,COc1ccc(S(=O)(=O)NC(=O)C2(C)CCN2C(=O)Cc2cccc3ccccc23)cc1 (centres undefined),inactive
19,CC1CCN(C(C)C(=O)Nc2ccccc2-c2ccccc2)CC1 (centres undefined),"inconclusive: 22.4 µM [inhibitor, single point]"
20,O=c1ccc2c(-c3ccccc3)c3ccc(O)cc3oc-2c1,inactive

# Source: PubChem BioAssay AID588855 (National Center for Advancing Translational Sciences (NCATS), 2011)
